# Assay results reported in publication PMC12136788.
# The list shows a part of the results.
# B1: chr2:29169617:29169618:+_ENSG00000163811_ENST00000407426|hu_hu|motif|central (ssRNA)
# RNA: GGGAGUUCUACAGUCCGACGAUCUAGUUUGACCGGCUUGCUUUGCUGUCUUCAUUCUUCUUCACUUUCAUUUUCAGGAUCGGAAUCAGAAUCUCCAUUUAAUUCUUUUUCACUUGCUGUAUCUCUGUCCUCGCCAUUUUCUUCCAACAGAGGAUUGAGCAUCA
# B2: chr9:35067926:35067927:-_ENSG00000165280_ENST00000358901|hu_hu|FALSE|FALSE (ssRNA)
# RNA: GGGAGUUCUACAGUCCGACGAUCUGGCUGGAUGCUGAUGACAUCCCCUAGGCGUACACGAAGGUUAUUCCGAACAACUCUAUUCAUCCGAAUCUUCUCAUCAGAACAAGUAUCAUCAGAAAGGACGAUGCAAACAGCUUCUCGCAACAGAGGAUUGAGCAUCA
# B3: chr2:48026839:48026840:+_ENSG00000116062_ENST00000540021|hu_hu|hu_hu_hu_mus_False|1_18 (ssRNA)
# RNA: GGGAGUUCUACAGUCCGACGAUCAUAGUGAGCCACUAGCGUCCUAAAUCUGGAACAGUGGCGGUCAUCCGAAAACUGGCCGAUGAAAAACUUGCCCAGUGAAGUGUCCACAAAGCACACACCAUAUACACGAGUGUGGCCAGACAACAGAGGAUUGAGCAUCA
# B4: chr4:25749455:25749456:-_ENSG00000091490_ENST00000264868|hu_hu|hu_hu_hu_mus_False|1_108 (ssRNA)
# RNA: GGGAGUUCUACAGUCCGACGAUCGCAAGCACUAGGAUAGAAAAAUCCACAGGGGGAAAAAAUGUAAACCAAUGUACAAUGUUAUCGCCUUCCCUGUGUGUGGAGUGUUUGUCUCAAGGCUCCUUCUAGCUGCUGGACUGCUAGCAACAGAGGAUUGAGCAUCA
# B5: chr1:39494447:39494448:+_ENSG00000168653_ENST00000372967|hu_mus|hu_hu_hu_mus_False|48_88 (ssRNA)
# RNA: GGGAGUUCUACAGUCCGACGAUCGCACCGAGCGGCGUUCUUAUAGGGCUGUUCACCGCUUAGGAACAUAAAGUGCCGGUCCAGGCUAAGGCCGAACUUUUUCUGUAUGUCAAGGAAAGGCAUGGCUCUGCAGUGCCCUUGUCACAACAGAGGAUUGAGCAUCA
# B6: chr1:185278638:185278639:-_ENSG00000116679_ENST00000392007|hu_hu|motif|central (ssRNA)
# RNA: GGGAGUUCUACAGUCCGACGAUCUAAAAUUUUCAUCCUCAAACAUCAAAUAUCCAUUGGGAAUCAUUUUUCCUUAUAAAUUUGGCGGCUCUGUUGGUGGCAAAUGUAUUUCUGGGAACUCUUAAGUAAUCCAAGGACAAAGGACAACAGAGGAUUGAGCAUCA
# B7: chr2:201943701:201943702:+_ENSG00000119013_ENST00000433898|hu_mus|FALSE|FALSE (ssRNA)
# RNA: GGGAGUUCUACAGUCCGACGAUCAUUGCGAGCCCAUGGAUCCCUCAGCCCUCGGGCAGCAAGCUUCUUCUGCACCGUUUCUAAUGGCGUCCCUUCAAUUUUCCACUGUCUGUAAUCUGGAAGUUCCAUUUUACCAUGGCCAUGCAACAGAGGAUUGAGCAUCA
# B8: 135925620_135927489_684_CDS_ENSMUSG00000039959_ENSMUST00000060311|mouse|control|control (ssRNA)
# RNA: GGGAGUUCUACAGUCCGACGAUCGAUGAGCGGUGCGAGGCGGCACUGGCCAGCCGUGGUCACGGACACCGAACGGGACAUGUCCAAGGAGUUGAACACAGUCUGGAAGAGGUUCAGUUCACACUCCAGGUAAUCAAACAUCUCCAACAGAGGAUUGAGCAUCA
# B9: chr10:127452298:127452299:+_ENSMUSG00000025395_ENSMUST00000026461|mus_mus|FALSE|FALSE (ssRNA)
# RNA: GGGAGUUCUACAGUCCGACGAUCAAAGCUUGAGUAGCUCCGGCAGCUCCGCAGGAUCAAAUGGCUCCAUGAAGUAAAGAACUAGACCCGGACAGGACUGACACGAGAAUUGGCGGGAACAAGACAGGCCUCCAUCCCUGCGCGCAACAGAGGAUUGAGCAUCA
# B10: chr19:16212804:16212805:+_ENSG00000167460_ENST00000300933|hu_mus|hu_hu_hu_mus_False|98_108 (ssRNA)
# RNA: GGGAGUUCUACAGUCCGACGAUCAACAAAUAUGCAAAAGAACAUCAAUGUAACAUGGAACAGCAUUAAAGCUCAGUCAGAAGGCACAUGGGCAACAAUGAUCACCCCAGCAUUCUCGCUUGGAAUGCUUAAAGACAAUCUGUUCAACAGAGGAUUGAGCAUCA
# B11: chr7:54168817:54168818:-_ENSMUSG00000014402_ENSMUST00000014546|mus_hu|FALSE|FALSE (ssRNA)
# RNA: GGGAGUUCUACAGUCCGACGAUCGUUUGAGAUCUUUGUAUAGAGUAAUAACAUUGACAGUUUCACGUACAGUUAGGUCUCUGUAUUUGUACUUGGACACCAUUUUCUUGAGCUGGCUCUCCGACACCGCCAUGACGGCCGCCUCAACAGAGGAUUGAGCAUCA
# B12: chr3:179287964:179287965:+_ENSG00000136518_ENST00000429709|hu_hu|hu_hu_hu_mus_True|8_108 (ssRNA)
# RNA: GGGAGUUCUACAGUCCGACGAUCCUUUAGAGGUGAAAUGGCCUCCAUGUUCUCCCUGGGCACGCGGAGGGCAUUGGUGUCUAUGUAGUAGGUGGGCCCGCCCUGCUUGCCUUUGUCACCAUCAAUCUCCAUUAAUGUACUUCCCAACAGAGGAUUGAGCAUCA
# B13: chr7:148679106:148679107:+_ENSMUSG00000025511_ENSMUST00000117634|mus_mus|FALSE|FALSE (ssRNA)
# RNA: GGGAGUUCUACAGUCCGACGAUCCCUGCCUGGAGCACCAAGAUCAUCGUGGGCCUUGAGCAGACUGGGCCUGCCCCCAACCUAGCAACCAUGCAAGGCUGGGAACCCCAUCCUGUGUGAACACUGGAAGGUAUAUAUGGAUAUCAACAGAGGAUUGAGCAUCA
# B14: 38353958_38354078_3120_CDS_ENSMUSG00000044864_ENSMUST00000156038|mouse|control|control (ssRNA)
# RNA: GGGAGUUCUACAGUCCGACGAUCUAACAACUUAAUGAUCUGAGAAUGCCCGUUUUUGGCUGCCACCCUCAUGGCAGUGCGUCCAAAUUGGUCGGCAUGAUUGGGAUCAGCACCGUGUUCCAGCAAAACCUGCACUACAUCCACCAACAGAGGAUUGAGCAUCA
# B15: 70208459_70208579_3005_CDS_ENSG00000131626_ENST00000253925|human|control|control (ssRNA)
# RNA: GGGAGUUCUACAGUCCGACGAUCCGGGGCAGACGGGCUGGUCAGCGACAUGAUCUCCUGGAUGGCCAGCCUCAGCUUCAGCCUGUGCAGGGGGUUGCUGAUGCCAAUCUCACGCUGGAUCUCUGUGUCGGACAGGGCCGACAUCAACAGAGGAUUGAGCAUCA
# B16: chr3:37053522:37053523:+_ENSG00000076242_ENST00000455445|hu_hu|FALSE|FALSE (ssRNA)
# RNA: GGGAGUUCUACAGUCCGACGAUCCAAAGAUGGAGCGAAUAUUGUCCACGGUUGAGGCAUUGGGUAGUGUCCUAACAUCAGCUACUGUCUCUCCUUGUUUUUUAACUGAGAAACUAAUGCCUGCAUUGUGUACUGAAUACCUGCCAACAGAGGAUUGAGCAUCA
# B17: chr4:149991449:149991450:+_ENSMUSG00000039852_ENSMUST00000105680|mus_mus|motif|central (ssRNA)
# RNA: GGGAGUUCUACAGUCCGACGAUCGCGCUCGGCUGCCAGUCUGUCUGGGUAACUCAUCUCAGGCCGCAGCUGAGGACCUGCGGGUGCCAGUCUCUCCCGCUCCAAAGGGUUGAGGCCCGGGUGGAAAGAGGCAAAGGGGUGGGGCAACAGAGGAUUGAGCAUCA
# B18: 6668594_6668714_779_CDS_ENSMUSG00000041272_ENSMUST00000039987|mouse|control|control (ssRNA)
# RNA: GGGAGUUCUACAGUCCGACGAUCGCCGGGCUGCAUCAUGCUUGCCUGCUGUCUGAUGUCUGUAGGCUGGCCUCUCGGCCUCAUGGCUGCCAUCUGAGGAUGGGAGCUGUACUGAGCUCCUUCUGCGUUCCCAAUCUCUUGCAUCAACAGAGGAUUGAGCAUCA
# B19: chr1:186330979:186330980:-_ENSG00000047410_ENST00000367478|hu_hu|FALSE|FALSE (ssRNA)
# RNA: GGGAGUUCUACAGUCCGACGAUCGUACAAAUUAGAAAGUUUUAUGUGGGCAUUUAAUUCAUUGUGGAAUUUCUCUUCCAUACUGGCCUGUUGUUCCUUGGCCUCUUUUAAUUUGGUCAACAGAUCCUCCACAUGCUUUUGAAGCAACAGAGGAUUGAGCAUCA
# B20: chr11:106646565:106646566:-_ENSMUSG00000020719_ENSMUST00000021062|mus_hu|motif|central (ssRNA)
# RNA: GGGAGUUCUACAGUCCGACGAUCUCUGCUUCAUCAAGGACAAGGUAGGUUGUUCUUCUCAGAUUGGUUUUUCCACACUCGGAAAAGUCAAUCAGUCUUCCAGGUGUUGCAAUACAGAUUUCCACACCUCUCUCCAAAUCACGUCAACAGAGGAUUGAGCAUCA
# B21: 4764818_4764938_1217_3pUTR_ENSG00000101265_ENST00000379400|human|control|control (ssRNA)
# RNA: GGGAGUUCUACAGUCCGACGAUCUGUGUCUAAAUGUUUCCAUGGAAAGAAAGUGCCUAGCUUCCUGGGGGUCUUAUGGGCAAUGGCGGUUCCUGGGGUGCCCAGAUCCCCUCGUUCUCAUGGCUCAGAUUGUUGCUGGGGUCUCAACAGAGGAUUGAGCAUCA
# B22: chr20:57485041:57485042:+_ENSG00000087460_ENST00000306090|hu_mus|FALSE|FALSE (ssRNA)
# RNA: GGGAGUUCUACAGUCCGACGAUCGUAGUCCUCAAUCUUCGAUUUGCCAGCGAGGACUUUCUCAGCAAGCAGGUCUUGCUUGUUGAGGAAGAGAAUCACAGAGAUGGUGCGCAGCCAUCUGUUGUUCCAGAUGCUCUUGAAGAGCAACAGAGGAUUGAGCAUCA
# Biological target: T1, UNK ZnF1-3 (human, UniProt Q9C0B0 31-174)
# T1 sequence: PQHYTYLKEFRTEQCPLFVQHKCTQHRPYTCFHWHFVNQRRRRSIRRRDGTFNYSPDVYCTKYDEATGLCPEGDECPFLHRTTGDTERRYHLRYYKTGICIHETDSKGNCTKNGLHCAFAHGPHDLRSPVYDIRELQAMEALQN
# Test: nsRBNS (natural sequence RNA bind-n-seq); RBNS binding buffer (assumed for nsRBNS): 25 mM Tris pH 7.5, 150 mM KCl, 3 mM MgCl2, 0.01% Triton X-100, 500 ug/ml BSA, 20 U/ml SUPERase-In, 4 C; UNK is unkempt and MSI1 is Musashi-1; names of the RNAs are library labels; protein concentration not given here; high values mean tight binding
row,Binder,binding signal [enrichment R]
1,B1,0.285
2,B2,0.954
3,B3,1.24
4,B4,1.26
5,B5,0.793
6,B6,1.27
7,B7,0.731
8,B8,1.37
9,B9,1.5
10,B10,0.859
11,B11,0.572
12,B12,0.708
13,B13,0.888
14,B14,1.02
15,B15,0.471
16,B16,0.499
17,B17,1.31
18,B18,0.505
19,B19,0.4
20,B20,0.748
21,B21,0.86
22,B22,0.763
